# Test results from PubChem BioAssay AID651820 (National Center for Advancing Translational Sciences (NCATS), 2012).
# Where “and” joins values, the source holds several entries; their conditions need not be identical. Equal values may be shown once. Among all 340,000 compounds or so, about 12,000 (3.5%) were called active. This list was built around the results that the source calls inconclusive (neither active nor inactive); the mix of calls is not that of the screen. Calls come from the whole dose curve; as a rule, active = well fitted inhibition curve with a large enough effect; inconclusive = small, poorly fitted or top-dose-only effect, or another doubt; inactive = no such curve, though single readings can be large or run the other way. A potency beside an inconclusive call is a rough fit, not a confirmed value.
# Test: qHTS Assay for Inhibitors of Hepatitis C Virus (HCV)
# Conditions: Huh7.5.1 HCVcc-Cre (HCVcc is cell-culture hepatitis C virus) infection, luciferase reporter, 44 h; activity change, negative = inhibition: at 41.8 µM (top of the series)
# Method in brief: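 Whole-lifecycle infectious HCVcc-Cre system; cells 1,000/well, compound then virus (~0.5 moi) added 4 h after plating, 44 h culture. Luciferase read 15 sec following 15 min substrate incubation, room temp.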
# % is set by controls: 0 for no effect and ±100 for the full control effect; potency is the fitted concentration of half-maximal effect; tags give direction and shape of the fitted curve.
SMILES,Potency,"activity change, negative = inhibition"
COc1ccc2c(c1)[C@H]1[C@H](CO2)[C@H](c2ccccc2)[C@]2(C)C(=O)Nc3ccccc3C(=O)N12,"inconclusive: 25.1 µM [inhibitor, single point]",
CCc1ccc(-c2nc(CN3CCC(C(=O)N4CCN(c5ccccc5)CC4)CC3)c(C)o2)cc1,"inconclusive: 8.91 µM [inhibitor, partial curve]",
CC(=O)C1=C(C)NC(SCc2cccc3ccccc23)=C(C#N)C1c1ccco1 (stereo unspecified),"inconclusive: 22.4 µM [inhibitor, partial curve]",
CCCn1c(=N)c(S(=O)(=O)c2ccccc2)cc2c(=O)n3ccccc3nc21,"inconclusive: 8.91 µM [inhibitor, partial curve]",
Cc1ccc2sc(NC(=O)c3cccc(N4C(=O)CCC4=O)c3)nc2c1C,"inconclusive: 15.8 µM [inhibitor, partial curve, poor fit]",
O=C(CNC(=O)Cc1ccccc1)NCc1cccs1,,inactive: 19.3%
COc1ccccc1NC(=O)c1c(N=Cc2cccc([N+](=O)[O-])c2)cnn1C,,inconclusive: -59.7% [inhibitor]
COc1ccc(NS(=O)(=O)c2cc(NC(=O)CCNC(C)=O)ccc2N2CCCCC2)cc1,"inconclusive: 8.91 µM [inhibitor, partial curve]",
CCCc1cc(=O)oc2c(C)c(OC(C)C(=O)NCCN3CCOCC3)ccc12 (stereo unspecified),"inconclusive: 3.55 µM [inhibitor, full curve]",
Cc1ccc(S(=O)(=O)N2CCCCC2C(=O)N2CCN(C)CC2)cc1 (stereo unspecified),"inconclusive: 31.6 µM [inhibitor, single point]",
O=C(Nc1cccc(S(=O)(=O)N2CCOCC2)c1)c1ccc2ccccc2n1,"inconclusive: 11.2 µM [inhibitor, partial curve]",
Cc1c(C(=O)OCC(=O)Nc2ccc(S(N)(=O)=O)cc2)oc2c1ccc1ccccc12,"inconclusive: 11.2 µM [inhibitor, partial curve]",
CCCN1Cc2cc(OC)ccc2-c2ccccc2S1(=O)=O,"inconclusive: 12.6 µM [inhibitor, single point]",
CCC(CO)Oc1cc(NCc2ccccc2)c2ncn(C(C)C)c2c1 (stereo unspecified),"inconclusive: 25.1 µM [inhibitor, single point]",
COc1ccc(NC(=O)NCCCN2CCN(c3cc(C)ccc3C)CC2)cc1,active: 10 µM,
COc1cccc(CNS(=O)(=O)c2ccccc2Br)c1OC,,inactive: -28.5%
COc1ccc(CNc2nc3ccccc3n2Cc2ccc(Cl)cc2)cc1OC,"inconclusive: 31.6 µM [inhibitor, single point]",
Cc1sc2ncnc(N3CCCC(C)C3)c2c1C (stereo unspecified),"inconclusive: 10 µM [inhibitor, partial curve]",
Cn1ncc2c(Nc3ccccc3Cl)nc(Nc3ccccc3Cl)nc21,active: 6.31 µM,
COc1cccc(NC(=O)Nc2ccc3c(c2)nc(C)n3C)c1,,inconclusive: -32.4% [inhibitor]
Cc1cc(C)cc(NC(=O)c2cc(Cl)sc2Cl)c1,,inactive: -10.9%
CC(C)(C)c1ccc(OCCC(=O)Nc2cccc(S(=O)(=O)NC3=NCCCCC3)c2)cc1,active: 14.1 µM,

SMILES,Potency,"activity change, negative = inhibition"
COc1ccc(NC(=O)c2[nH]c(C)c(C(C)=O)c2C)cc1S(=O)(=O)Nc1ccc(Br)cc1,active: 14.1 µM,
CC(C)(C)OC(=O)C[C@@H]1C/C=C\C[C@H](CC(=O)N[C@H](CO)Cc2ccccc2)C(=O)N[C@H](Cc2ccccc2)COC1=O,,inactive: 7.02%
CCOc1ccc(C(=O)NC(=S)Nc2ccc(N3CCC(C)CC3)cc2)cc1[N+](=O)[O-],"inconclusive: 355 nM [inhibitor, full curve, poor fit] and inconclusive: 2 µM [inhibitor, full curve, poor fit]",
COc1cc(NC(=O)c2ccccc2)c(OC)cc1Cl,"inconclusive: 1 µM [inhibitor, full curve, poor fit]",
CCOc1ccc(-c2nnn(CC(=O)Nc3cccc(OC)c3)n2)cc1OCC,"inconclusive: 1.58 µM [inhibitor, full curve]",
C#C[C@]1(OC(C)=O)CCC2C3CCC4=CC(=O)CC[C@@H]4C3CC[C@@]21C (stereo partly specified),"inconclusive: 5.62 µM [inhibitor, partial curve]",
COc1ccccc1NC(=O)c1ccc(Cl)c(S(=O)(=O)N2CCCCC2)c1,"inconclusive: 10 µM [inhibitor, partial curve]",
Cc1nc2ccc(NC(=O)CCS(=O)(=O)c3ccc(Cl)cc3)cc2s1,"inconclusive: 31.6 µM [inhibitor, single point]",
N#CC1=C(N)Oc2n[nH]c(-c3ccccn3)c2C1c1c(F)cccc1Cl (stereo unspecified),"inconclusive: 22.4 µM [inhibitor, single point]",
CCCSc1ccc(-c2nn(-c3ccccc3)cc2/C=C(/C#N)C(=O)N2CCOCC2)cc1,"inconclusive: 10 µM [inhibitor, single point]",
COc1cc(/C=C2\N=C3CCCCCN3C2=O)ccc1O,inactive,
O=C1c2cc(Cl)ccc2OC2(CCNCC2)C12CC(c1ccc(Cl)cc1)=NO2 (stereo unspecified),"inconclusive: 5.62 µM [inhibitor, single point]",
CCOc1ccc(S(=O)(=O)NCCC(=O)NCCc2ccc(OCC)c(OCC)c2)cc1,"inconclusive: 6.31 µM [inhibitor, partial curve]",
COc1ccc(C)cc1-n1nnnc1SCC(=O)NC1CCCC1,"inconclusive: 25.1 µM [inhibitor, single point]",
COc1cccc(-n2nnnc2SCC(=O)Nc2nc3c(s2)CCCC3)c1,"inconclusive: 31.6 µM [inhibitor, single point]",
O=C(c1cc(C(=O)NCc2ccc(Cl)cc2)c(=O)n(Cc2ccc(Cl)cc2)c1)c1cc(F)ccc1O,"inconclusive: 0.316 µM [inhibitor, full curve, poor fit]",
O=C(NCc1ccc(F)cc1)c1ccc(N2CCc3ccccc32)c([N+](=O)[O-])c1,"inconclusive: 14.1 µM [inhibitor, partial curve]",
N#CC1=C(N)n2c(s/c(=C\c3cccs3)c2=O)=C(C#N)C1c1cccs1 (stereo unspecified),active: 0.501 µM,
CCOC(=O)Cc1c(C)nc2c(-c3cccc(Br)c3)cnn2c1C,,inactive: -1.74%
CCCCOc1cccc(C(=O)Nc2ccc(NC(=O)c3cccs3)cc2)c1,"inconclusive: 4.47 µM [inhibitor, full curve]",
O=C(Nc1ccncc1)c1ccc(Cl)c(Cl)c1,,inactive: -23.7%
Fc1ccc(NC(=S)Nc2ccc(F)c(Cl)c2)cc1Cl,"inconclusive: 15.8 µM [inhibitor, single point]",

SMILES,Potency,"activity change, negative = inhibition"
CCOC(=O)c1cc2c(=O)n3ccccc3nc2n(Cc2ccco2)c1=NC(=O)c1ccc(OC)cc1OC,"inconclusive: 4.47 µM [inhibitor, partial curve]",
COc1ccc(C(=O)CSc2nnc(-c3cccs3)n2-c2ccccc2)cc1,"inconclusive: 5.62 µM [inhibitor, single point]",
O=C(NC(=S)Nc1cccnc1Cl)c1ccc(F)cc1,"inconclusive: 3.16 µM [inhibitor, partial curve, poor fit]",
O=C(Nc1ccc(S(=O)(=O)N2CCc3ccccc3C2)cc1)c1ccccc1,"inconclusive: 22.4 µM [inhibitor, partial curve]",
COc1cnc(-c2ccccn2)nc1Sc1ccccc1,active: 6.31 µM,
O=C(NCc1ccccc1Cl)c1cccc(NC(=O)c2ccccc2)c1,"inconclusive: 14.1 µM [inhibitor, single point]",
Cc1ccccc1C(=O)N1CCC(C(=O)Nc2nc3ccc(F)cc3s2)CC1,"inconclusive: 10 µM [inhibitor, single point]",
O=C(COc1coc(CN2CCc3ccccc3C2)cc1=O)Nc1ccc([N+](=O)[O-])cc1,"inconclusive: 6.31 µM [inhibitor, partial curve]",
CN1CCN(c2ccc(Cl)cc2NC(=O)CCN2C(=O)c3ccccc3C2=O)CC1,,inactive: -11.2%
CCN(Cc1ccccc1)C(=O)COC(=O)c1cnc(C)cn1,,inactive: 9.45%
COc1ccc(CC(=O)Nc2nc(-c3ccc(F)c(F)c3)cs2)cc1,"inconclusive: 11.2 µM [inhibitor, single point]",
Cc1ccccc1S(=O)(=O)Cc1ccc(C(=O)N2CC(C)CC(C)C2)o1 (stereo unspecified),,inactive: -24%
Cc1csc(NC(=O)C(C)Oc2ccc(Br)cc2)n1 (stereo unspecified),"inconclusive: 7.08 µM [inhibitor, partial curve, poor fit]",
COc1ccc(NC(=O)CN(C)S(=O)(=O)c2cccc3cccnc23)cc1,,inactive: -16.7%
COc1ccc(OCc2nnc(SCC(=O)NC3CC4CCC3C4)o2)cc1 (stereo unspecified),,inactive: 8.24%
CC(C)Oc1ccc(-c2nc(NCC3CCCO3)c3ccccc3n2)cc1 (stereo unspecified),active: 11.2 µM,
Cc1ccc2nc(=O)c(NNc3ccccc3)cnc2c1,"inactive and inconclusive: 12.6 µM [inhibitor, single point]",
CCc1cc2c(NCC3CCCO3)ncnc2s1 (stereo unspecified),"inconclusive: 31.6 µM [inhibitor, single point]",
C/C(=N\NC(=O)c1ccc(Cn2cc(Br)cn2)o1)c1ccc(NC(=O)c2ccoc2C)cc1,active: 7.08 µM,
C[C@H]1c2cccc(O)c2C(O)=C2C(=O)[C@]3(O)C(O)=C(C(N)=O)C(=O)[C@@H](N(C)C)[C@@H]3[C@@H](O)[C@@H]21,,inactive: -3.92%
CC1CN(CC(O)COc2ccc(C#N)cc2)CCN1CC(O)COc1ccc(C#N)cc1 (stereo unspecified),"inconclusive: 11.2 µM [inhibitor, partial curve]",
CCc1cc(=O)[nH]c(-n2[nH]c(-c3ccccc3)cc2=O)n1,,inactive: -0.878%
